Experimental data published in a collection of fitness landscapes (doi:10.1016/j.celrep.2020.107928).
Over roughly 81,000 sequences, “one-hybrid fitness for binding parS DNA” has its median near -0.17; the highest 2% begin near 0.51. The list shows a part of the results.

B1: Caulobacter ParB omega fusion; a variant is named by its letters at X, in order, B8GW30 (parent)
chain: MESVVVGEPGMSEGRRGLGRGLSALLGEVDAAPAQAPGEQLGGSREAPIEILQRNPDQPRRTFREEDLEDLSNSIREKGVLQPILVRPSPDTAGEYQIVAGERAWRAAQRAGLKTVPIMVRELDDLAVLEIGIIENVQRADLNVLEEALSYKVLMEKFERTQENIAQTIGKSXSHVANXMRLLXLPDEVQSYLVSGELTAXHARAIAAAADPVALAKQIIEGGLSVRETEALARKAPNLSAGKSKGGRPPRVKDTDTQALESDLSSVLGLDVSIDHRGSTGTLTITYATLEQLDDLCNRLTRGI

Variants of: B1
Test: one-hybrid fitness for binding parS DNA (scaled: cognate 1, non-cognate 0); higher = stronger binding
Details: with parS DNA site
In short: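 Pre- and post-selection plasmids were Illumina-sequenced, three replicate libraries were pooled, and any variant with under 10 reads was removed. The libraries were Caulobacter ParB with four specificity codons randomised, selected in E. coli USO through a HIS3 reporter whose site is 19 bp from the promoter. Cells grew 48 hours at 37°C on M9 without histidine, with 0.1 mM IPTG and 5 mM 3-AT. Fitness is the log change in variant-to-wild-type read ratio, rescaled against cognate and non-cognate.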

| Variant | one-hybrid fitness for binding parS DNA |
| --- | --- |
| WNIG | ≤ 0.2 |
| SNKL | ≤ 0.2 |
| KGVE | ≤ 0.2 |
| PTLI | ≤ 0.2 |
| LETV | ≤ 0.2 |
| PHPY | ≤ 0.2 |
| RWSF | ≤ 0.2 |
| QAGM | ≤ 0.2 |
| VAIC | ≤ 0.2 |
| WYRG | ≤ 0.2 |
| FKMT | ≤ 0.2 |
| KMCC | ≤ 0.2 |
| KRSW | ≤ 0.2 |
| YATS | ≤ 0.2 |
| YEGR | ≤ 0.2 |
| IMDR | ≤ 0.2 |
| YGKT | ≤ 0.2 |
| ICSY | ≤ 0.2 |
| QMQP | ≤ 0.2 |
| QMRL | ≤ 0.2 |
| RCVM | 0.298 |
| IACC | ≤ 0.2 |
| RPSE | ≤ 0.2 |
| MGHV | ≤ 0.2 |

| Variant | one-hybrid fitness for binding parS DNA |
| --- | --- |
| STLY | ≤ 0.2 |
| CCRE | ≤ 0.2 |
| VMGR | ≤ 0.2 |
| VYNG | ≤ 0.2 |
| QYYL | ≤ 0.2 |
| TRYI | ≤ 0.2 |
| HRKE | ≤ 0.2 |
| PVDG | ≤ 0.2 |
| HSEF | ≤ 0.2 |
| SCFT | ≤ 0.2 |
| LDPI | ≤ 0.2 |
| VHMG | ≤ 0.2 |
| LPDR | ≤ 0.2 |
| AQKM | ≤ 0.2 |
| WWRR | ≤ 0.2 |
| NSMG | ≤ 0.2 |
| IDYR | ≤ 0.2 |
| QQPA | ≤ 0.2 |
| RQGN | 0.441 |
| HGHR | ≤ 0.2 |
| HCTD | ≤ 0.2 |
| MKQR | ≤ 0.2 |
| EDES | ≤ 0.2 |
| WELN | ≤ 0.2 |

| Variant | one-hybrid fitness for binding parS DNA |
| --- | --- |
| QEST | ≤ 0.2 |
| VHYG | ≤ 0.2 |
| AKSY | ≤ 0.2 |
| EGAS | ≤ 0.2 |
| NEAR | ≤ 0.2 |
| GVKG | ≤ 0.2 |
| WMRS | ≤ 0.2 |
| PTDS | ≤ 0.2 |
| QSKH | ≤ 0.2 |
| QQAC | ≤ 0.2 |
| LTYM | ≤ 0.2 |
| HCSW | ≤ 0.2 |
| WPET | ≤ 0.2 |
| HMYE | ≤ 0.2 |
| ATFE | ≤ 0.2 |
| YRWS | ≤ 0.2 |
| IYSA | ≤ 0.2 |
| HVWS | ≤ 0.2 |
| PKPD | ≤ 0.2 |
| MHKS | ≤ 0.2 |
| HSTG | ≤ 0.2 |
| QYPY | ≤ 0.2 |
| NQTR | ≤ 0.2 |
| NRTW | ≤ 0.2 |

| Variant | one-hybrid fitness for binding parS DNA |
| --- | --- |
| QLIY | ≤ 0.2 |
| TVDG | ≤ 0.2 |
| PEAY | ≤ 0.2 |
| GCFC | ≤ 0.2 |
| FTNP | ≤ 0.2 |
| TKAS | ≤ 0.2 |
| CFQR | ≤ 0.2 |
| RIEF | ≤ 0.2 |
| EPRQ | ≤ 0.2 |
| EVWR | ≤ 0.2 |
| QYTV | ≤ 0.2 |
| EKLD | ≤ 0.2 |
| QGTG | ≤ 0.2 |
| AFRL | ≤ 0.2 |
| PGKR | ≤ 0.2 |
| PWGS | ≤ 0.2 |
| GLAP | ≤ 0.2 |
| RRNY | 0.727 |
| MEGT | ≤ 0.2 |
| KALR | ≤ 0.2 |
| SPYR | ≤ 0.2 |
| PLMH | ≤ 0.2 |
| AIHG | ≤ 0.2 |
| RKMS | 0.876 |

| Variant | one-hybrid fitness for binding parS DNA |
| --- | --- |
| HSSM | ≤ 0.2 |
| VGTH | ≤ 0.2 |
| NHTS | ≤ 0.2 |
| VPRE | ≤ 0.2 |
| QAMD | ≤ 0.2 |
| MTTR | ≤ 0.2 |
| PMVF | ≤ 0.2 |
| HSTV | ≤ 0.2 |
| RYFY | 0.43 |
| HPDP | ≤ 0.2 |
| DKQR | ≤ 0.2 |
| NSHA | ≤ 0.2 |
| RLDA | 0.588 |
| HGKW | ≤ 0.2 |
| IQYG | ≤ 0.2 |
| CRDR | ≤ 0.2 |
| RSAF | 0.266 |
| AMAM | ≤ 0.2 |
| STGL | ≤ 0.2 |
| YKRQ | ≤ 0.2 |
| PPSC | ≤ 0.2 |
| RTYS | 1 |
| GCPT | ≤ 0.2 |
| VSVN | ≤ 0.2 |

| Variant | one-hybrid fitness for binding parS DNA |
| --- | --- |
| IWGT | ≤ 0.2 |
| REIS | ≤ 0.2 |
| CYHP | ≤ 0.2 |
| AYQT | ≤ 0.2 |
| TVSW | ≤ 0.2 |
| ACEA | ≤ 0.2 |
| QQDM | ≤ 0.2 |
| VNLV | ≤ 0.2 |
| NVTC | ≤ 0.2 |
| GADR | ≤ 0.2 |
| VDQK | ≤ 0.2 |
| GILS | ≤ 0.2 |
| GQSV | ≤ 0.2 |
| DFWS | ≤ 0.2 |
| TITY | ≤ 0.2 |
| KGPS | ≤ 0.2 |
| TFDY | ≤ 0.2 |
| GRCN | ≤ 0.2 |
| APVQ | ≤ 0.2 |
| RSTV | ≤ 0.2 |
| LPIS | ≤ 0.2 |
| HAGC | ≤ 0.2 |
| HYSY | ≤ 0.2 |
| YATP | ≤ 0.2 |

| Variant | one-hybrid fitness for binding parS DNA |
| --- | --- |
| FFCR | ≤ 0.2 |
| QLDL | ≤ 0.2 |
| DAFR | ≤ 0.2 |
| QQHD | ≤ 0.2 |
| CPLR | ≤ 0.2 |
| LNCA | ≤ 0.2 |
| MCHS | ≤ 0.2 |
| MGES | ≤ 0.2 |
| PSFY | ≤ 0.2 |
| KRPR | ≤ 0.2 |
| TLFS | ≤ 0.2 |
| PFLR | ≤ 0.2 |
| RANG | 1 |
| NHSF | ≤ 0.2 |
| PRLC | ≤ 0.2 |
| ELRR | ≤ 0.2 |
| RQDR | ≤ 0.2 |
| STNA | ≤ 0.2 |
| YSKA | ≤ 0.2 |
| LLFG | ≤ 0.2 |
| TNIW | ≤ 0.2 |
| VGKV | ≤ 0.2 |
| TAKP | ≤ 0.2 |
| HRRR | ≤ 0.2 |

| Variant | one-hybrid fitness for binding parS DNA |
| --- | --- |
| SRPL | ≤ 0.2 |
| QPGP | ≤ 0.2 |
| TTSM | ≤ 0.2 |
| TAII | ≤ 0.2 |
| RCYR | ≤ 0.2 |
| FTPT | ≤ 0.2 |
| SCLP | ≤ 0.2 |
| CAYF | ≤ 0.2 |
| VDFT | ≤ 0.2 |
| DDMC | ≤ 0.2 |
| FVHL | ≤ 0.2 |
| TPAL | ≤ 0.2 |
| TMTM | ≤ 0.2 |
| QTYF | ≤ 0.2 |
| TMGR | ≤ 0.2 |
| MQTL | ≤ 0.2 |
| GNNW | ≤ 0.2 |
| ECNI | ≤ 0.2 |
| YVRT | ≤ 0.2 |
| SELC | ≤ 0.2 |
| LAFQ | ≤ 0.2 |
| AVTI | ≤ 0.2 |
| HRSF | ≤ 0.2 |
| FYVW | 0.24 |

| Variant | one-hybrid fitness for binding parS DNA |
| --- | --- |
| HWLL | ≤ 0.2 |
| MTRN | ≤ 0.2 |
| ERWS | ≤ 0.2 |
| TAFC | ≤ 0.2 |
| MLPP | ≤ 0.2 |
| SSSE | ≤ 0.2 |
| TNKS | ≤ 0.2 |
| QVEG | ≤ 0.2 |
| PGHT | ≤ 0.2 |
| MHHS | ≤ 0.2 |
| VKSQ | ≤ 0.2 |
| PQQT | ≤ 0.2 |
| EAYT | ≤ 0.2 |
| KNEM | ≤ 0.2 |
| GNIK | ≤ 0.2 |
| DTHE | ≤ 0.2 |
| TCLS | ≤ 0.2 |
| KSCN | ≤ 0.2 |
| SERA | ≤ 0.2 |
| PGSC | ≤ 0.2 |
| MQAG | ≤ 0.2 |
| TTYG | ≤ 0.2 |
| CPVF | ≤ 0.2 |
| YNLS | ≤ 0.2 |

| Variant | one-hybrid fitness for binding parS DNA |
| --- | --- |
| RRTL | ≤ 0.2 |
| REDD | ≤ 0.2 |
| PLAL | ≤ 0.2 |
| TLDA | ≤ 0.2 |
| KSME | ≤ 0.2 |
| RGFH | ≤ 0.2 |
| DYYI | ≤ 0.2 |
| WPRC | ≤ 0.2 |
| FKLL | ≤ 0.2 |
| LRHH | ≤ 0.2 |
| ANWR | ≤ 0.2 |
| CRII | ≤ 0.2 |
| GIRC | ≤ 0.2 |
| APGS | ≤ 0.2 |
| TAFF | ≤ 0.2 |
| VSGI | ≤ 0.2 |
| IGSI | ≤ 0.2 |
| FSPT | ≤ 0.2 |
| LSIN | ≤ 0.2 |
| LVFS | ≤ 0.2 |
| IVRR | ≤ 0.2 |
| DAGW | ≤ 0.2 |
| GQKG | ≤ 0.2 |
| QKGL | ≤ 0.2 |

| Variant | one-hybrid fitness for binding parS DNA |
| --- | --- |
| VQHC | ≤ 0.2 |
| ICTS | ≤ 0.2 |
| IQDG | ≤ 0.2 |
| RFGH | 0.245 |
| RWWS | 0.644 |
| HCRG | ≤ 0.2 |
| SPQK | ≤ 0.2 |
| RQMM | 0.33 |
| LDMP | ≤ 0.2 |
| TPGR | ≤ 0.2 |
| HHDY | ≤ 0.2 |
| FKQS | ≤ 0.2 |
| QRDT | ≤ 0.2 |
| DRPF | ≤ 0.2 |
| ALSM | ≤ 0.2 |
| TWFP | ≤ 0.2 |
| AIGY | ≤ 0.2 |
| FLFV | ≤ 0.2 |
| QPDI | ≤ 0.2 |
| NAEC | ≤ 0.2 |
| DPTY | ≤ 0.2 |
| FPNC | ≤ 0.2 |
| ASWS | ≤ 0.2 |
| SSKH | ≤ 0.2 |

| Variant | one-hybrid fitness for binding parS DNA |
| --- | --- |
| MDAT | ≤ 0.2 |
| QVIQ | ≤ 0.2 |
| PFHG | ≤ 0.2 |
| AAKS | ≤ 0.2 |
| ANSY | ≤ 0.2 |
| SSDI | ≤ 0.2 |
| ICQG | ≤ 0.2 |
| PKYV | ≤ 0.2 |
| IACY | ≤ 0.2 |
| RQHW | 0.207 |
| PLVG | ≤ 0.2 |
| ILWS | ≤ 0.2 |
| PVTP | ≤ 0.2 |
| EPGG | ≤ 0.2 |
| GKKW | ≤ 0.2 |
| HHIS | ≤ 0.2 |
| ITNQ | ≤ 0.2 |
| RVVK | ≤ 0.2 |
| PTQP | ≤ 0.2 |
| FKNG | ≤ 0.2 |
| VQHG | ≤ 0.2 |
| NCDT | ≤ 0.2 |
| GTAV | ≤ 0.2 |
| WTNF | ≤ 0.2 |

| Variant | one-hybrid fitness for binding parS DNA |
| --- | --- |
| NVRY | ≤ 0.2 |
| MQHN | ≤ 0.2 |
| HEKE | ≤ 0.2 |
| LPFV | ≤ 0.2 |
| CTRD | ≤ 0.2 |
| QRTK | ≤ 0.2 |
| SYSV | ≤ 0.2 |
| NAKC | ≤ 0.2 |
| YQPT | ≤ 0.2 |
| YGTM | ≤ 0.2 |
| PIFE | ≤ 0.2 |
| SERD | ≤ 0.2 |
| PYHP | ≤ 0.2 |
| MYHR | ≤ 0.2 |
| YTSP | ≤ 0.2 |
| GDAR | ≤ 0.2 |
| LSDA | ≤ 0.2 |
| IIGF | ≤ 0.2 |
